About 220 (0.56%) of roughly 39,000 compounds showed activity. Some of the results follow.
test system: Escherichia coli K-12 BW25113; experiment: relative growth (OD600 normalised to plate interquartile mean) (fraction); higher = less growth inhibition, active = 0.2 or less; conditions: 50 µM; LB; incubation time: overnight (16-24 h)
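Note: static incubation at 37 °C against the wild-type strain, values averaged over two biological replicates.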

Compound	relative growth
O=C(C[C@@H]1C[C@@H]2c3cc(NC(=O)c4ccc5c(c4)OCO5)ccc3O[C@@H]2[C@H](CO)O1)NCCc1ccccc1	inactive: 1.01
C[C@@H]1CCCCO[C@@H](CN(C)S(C)(=O)=O)[C@@H](C)CN([C@H](C)CO)C(=O)c2cc(NS(C)(=O)=O)ccc2O1	inactive: 1.04
C[C@H](CO)N1C[C@H](C)[C@@H](CN(C)C(=O)Nc2ccc(C(F)(F)F)cc2)Oc2c(NC(=O)Nc3ccc(C(F)(F)F)cc3)cccc2C1=O	inactive: 0.952
C[C@@H]1CCCCO[C@H](CN(C)C(=O)C2CCCCC2)[C@H](C)CN([C@H](C)CO)C(=O)c2cc(NS(=O)(=O)c3ccc(Cl)cc3)ccc2O1	inactive: 1.01
CCS(=O)(=O)NCC[C@@H]1CC[C@H](NC(=O)Cc2ccccn2)[C@@H](CO)O1	inactive: 1.02
CC(O)C1C(=O)N2C(C(=O)O)=C(SC3CNC(C(=O)N(C)C)C3)C(C)C12 (stereo unspecified)	active: 0.0517
O=C(CN1CCOCC1)N[C@H]1CC[C@H](CCn2cc(C3CCCC3)nn2)O[C@@H]1CO	inactive: 0.963
C[C@@H]1CN([C@H](C)CO)S(=O)(=O)c2ccc(C#CCN(C)C)cc2O[C@H]1CN(C)C(=O)CN(C)C	inactive: 1
COc1ccc(S(=O)(=O)N(C)C[C@H]2OCCCC[C@@H](C)Oc3ccc(NC(=O)Nc4ccc5c(c4)OCO5)cc3C(=O)N([C@@H](C)CO)C[C@H]2C)cc1	inactive: 1.02
COc1ccc(NC(=O)Nc2ccc3c(c2)C(=O)N([C@H](C)CO)C[C@H](C)[C@H](CN(C)Cc2ccc(C(=O)O)cc2)OCCCC[C@@H](C)O3)cc1	inactive: 1.01
Cc1cc(C(=O)Nc2cccc3c2O[C@H](CN(C)S(=O)(=O)c2ccccc2)[C@H](C)CN([C@H](C)CO)C3=O)n(C)n1	inactive: 1.01
COc1ccc(S(=O)(=O)N2C[C@H](O)COC[C@@H]3O[C@H](CC(=O)NCCCN(C)C)CC[C@H]32)cc1	inactive: 1.02
C[C@@H](O)C#Cc1ccc2c(c1)O[C@H](CN(C)C(=O)C1CCCCC1)[C@@H](C)CN([C@@H](C)CO)S2(=O)=O	inactive: 1.02
C[C@@H]1CN([C@@H](C)CO)C(=O)Cc2cc(NC(=O)c3ccncc3)ccc2O[C@H]1CN(C)Cc1ccc(-c2ccccc2)cc1	inactive: 0.986
CO[C@H]1O[C@H](CO)[C@@H](OC(=O)Nc2ccc(Oc3ccccc3)cc2)[C@H](OC(=O)Nc2ccccc2-c2ccccc2)[C@@H]1OC(=O)Nc1ccccc1-c1ccccc1	inactive: 1.04
CC(NCCCc1cccc(C(F)(F)F)c1)c1cccc2ccccc12.Cl (stereo unspecified)	active: 0.0467
O=C1OCC=C[C@H]2O[C@@]34C=CCN(CCN5CCOCC5)C(=O)[C@H]3N(CCO)C(=O)[C@@H]4[C@@H]12	inactive: 1.01
Cc1noc(C)c1S(=O)(=O)Nc1ccc2c(c1)C(=O)N([C@@H](C)CO)C[C@@H](C)[C@H](CN(C)C(=O)Nc1ccc3c(c1)OCO3)O2	inactive: 0.951

Compound	relative growth
O=C1CC[C@@H](C(=O)O)N1	inactive: 1.01
Cc1ccc(S(=O)(=O)Nc2ccc3c(c2)C(=O)N([C@H](C)CO)C[C@H](C)[C@@H](CN(C)S(=O)(=O)c2ccccc2)O3)cc1	inactive: 1.04
COc1ccc(S(=O)(=O)N(C)C[C@@H]2OCCCC[C@H](C)Oc3ccc(NC(=O)Nc4ccccc4)cc3C(=O)N([C@@H](C)CO)C[C@@H]2C)cc1	inactive: 1.02
O=C(C[C@@H]1CC[C@@H]2[C@H](COC[C@@H](O)CN2S(=O)(=O)c2ccccc2)O1)NCc1ccc(-c2ccccc2)cc1	inactive: 0.914
COCC(=O)N1C[C@@H]2OCCN(c3ncccn3)[C@H]2C1	inactive: 0.997
C[C@@H]1CCCCO[C@@H](CN(C)C(=O)NC2CCCCC2)[C@H](C)CN([C@H](C)CO)C(=O)c2cc(NC(=O)CCC(F)(F)F)ccc2O1	inactive: 1.02
C[C@@H]1CN([C@H](C)CO)C(=O)c2cc(NS(=O)(=O)c3ccccc3)ccc2O[C@H]1CN(C)S(=O)(=O)c1cn(C)cn1	inactive: 0.992
CC(=O)O[C@H]1C[C@@]2(C)[C@H]3CC=C4[C@@H](C[C@@H](O[C@H]5O[C@@H](CO)[C@@H](O)[C@@H](O)[C@@H]5O)[C@@H](O)C4(C)C)[C@@]3(C)CC[C@@]2(C)[C@@H]1C(C)(O)C(=O)CCC(C)(C)O (stereo partly specified)	inactive: 1.01
Cc1ccc(S(=O)(=O)Nc2ccc3c(c2)C(=O)N([C@H](C)CO)C[C@H](C)[C@@H](CN(C)C(=O)CCC(F)(F)F)OCCCC[C@@H](C)O3)cc1	inactive: 1.02
Nc1nc(=O)n([C@H]2C[C@H](O)[C@@H](CO)O2)cc1O	inactive: 0.967
CO[C@H]1O[C@H](CO)[C@@H](OC(=O)Nc2ccccc2-c2ccccc2)[C@H](OC(=O)Nc2ccccc2-c2ccccc2)[C@@H]1OC(=O)Nc1ccccc1-c1ccccc1	inactive: 1.07
COc1ccc(S(=O)(=O)Nc2ccc3c(c2)C(=O)N([C@H](C)CO)C[C@@H](C)[C@@H](CN(C)C(=O)c2ccccc2)OCCCC[C@H](C)O3)cc1	inactive: 1.02
O=C(NCCO)C1=C[C@H](Oc2ccccc2I)[C@@H](O)[C@H](N(Cc2ccco2)C(=O)Cc2ccccc2)C1	inactive: 1.04
C[C@@H]1CN([C@H](C)CO)C(=O)c2cccc(NS(C)(=O)=O)c2O[C@@H]1CN(C)C(=O)Nc1ccc(F)cc1	inactive: 0.986
C[C@@H]1CCCCO[C@H](CN(C)Cc2ccc(C(F)(F)F)cc2)[C@H](C)CN([C@H](C)CO)C(=O)c2cc(NC(=O)Nc3ccc(F)cc3)ccc2O1	inactive: 1.01
C[C@@H]1CCCCO[C@H](CN(C)Cc2ccccc2)[C@@H](C)CN([C@@H](C)CO)C(=O)c2cc(NC(=O)Nc3ccc(C(F)(F)F)cc3)ccc2O1	inactive: 0.962
C[C@@H]1CN([C@@H](C)CO)C(=O)c2cc(Br)cnc2O[C@H]1CN(C)C(=O)Nc1ccc2c(c1)OCO2	inactive: 0.995
Cc1noc(C)c1NC(=O)Nc1ccc2c(c1)C(=O)N([C@H](C)CO)C[C@H](C)[C@H](CN(C)C(=O)Nc1c(C)noc1C)OCCCC[C@@H](C)O2	inactive: 0.993

Source: the supplement of paper PMC9446081
